# From the supplement of paper PMC8728848
# The list shows a part of the results.
# B1: Epa13 (Candida glabrata) (protein)
# chain: MGSSHHHHHHSSGLVPRGSHMASDSSENGYAHGCSPSIRAKLKPGLSMEIYSYALRPTDDHCWDSAYLDPMFPRTGYLTHKLLGKAEGIIGPLNFLAKNPACIPAVSTLPLAFHFPKPFTITNFTMLLYGYLSPKKTGKYTFKLLADDLLLMNFGADNAFDCCSHDATKDNIGEYVAYSVWPGVNKNVTVYLESGIYYPLRLFFNNRDAIAQLDFAYYFNDSPIRQTDFSGMFFSIPDSVKCPANI
# Tests used:
# Assay in all cases: glycan array binding signal (z-score within array); higher = stronger binding
# Details in all cases: glycan notation: IUPAC condensed, linker removed
# Gal(b1-4)Glc = target: Gal(b1-4)Glc
# Outline: (§1)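 Glycan array binding is given as a within-array Z-score, which can be read as non-binding when negative. The arrays, 3228 of them, came from the Consortium for Functional Glycomics database and were retained only where the protein sequence was available. Z-scores were averaged across arrays of the same protein sequence at different concentrations or buffers and across linkers.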
# Gal(b1-4)Glc6S = target: Gal(b1-4)Glc6S
# Outline: as §1
# Gal(b1-4)GlcNAc = target: Gal(b1-4)GlcNAc
# Outline: as §1
# [1] = target: Gal(b1-4)GlcNAc(a1-6)Gal(b1-4)GlcNAc
# Outline: as §1
# Gal(b1-4)GlcNAc(b1-2)Man = target: Gal(b1-4)GlcNAc(b1-2)Man
# Outline: as §1
# [2] = target: Gal(b1-4)GlcNAc(b1-2)Man(a1-3)Man(b1-4)GlcNAc(b1-4)GlcNAc
# Outline: as §1
# [3] = target: Gal(b1-4)GlcNAc(b1-2)Man(a1-3)[Gal(b1-4)GlcNAc(b1-2)Man(a1-6)]Man(b1-4)GlcNAc(b1-4)GlcNAc
# Outline: as §1
# [4] = target: Gal(b1-4)GlcNAc(b1-2)Man(a1-3)[Gal(b1-4)GlcNAc(b1-2)Man(a1-6)]Man(b1-4)GlcNAc(b1-4)[Fuc(a1-6)]GlcNAc
# Outline: as §1
# [5] = target: Gal(b1-4)GlcNAc(b1-2)Man(a1-3)[Gal(b1-4)GlcNAc(b1-2)Man(a1-6)][Gal(b1-4)GlcNAc(b1-4)]Man(b1-4)GlcNAc(b1-4)[Fuc(a1-6)]GlcNAc
# Outline: as §1
# [6] = target: Gal(b1-4)GlcNAc(b1-2)Man(a1-3)[Gal(b1-4)GlcNAc(b1-2)Man(a1-6)][GlcNAc(b1-4)]Man(b1-4)GlcNAc(b1-4)[Fuc(a1-6)]GlcNAc
# Outline: as §1
# [7] = target: Gal(b1-4)GlcNAc(b1-2)Man(a1-3)[GlcNAc(b1-2)Man(a1-6)]Man(b1-4)GlcNAc(b1-4)GlcNAc
# Outline: as §1
# [8] = target: Gal(b1-4)GlcNAc(b1-2)Man(a1-3)[GlcNAc(b1-4)][Gal(b1-4)GlcNAc(b1-2)Man(a1-6)]Man(b1-4)GlcNAc(b1-4)GlcNAc
# Outline: as §1
# [9] = target: Gal(b1-4)GlcNAc(b1-2)Man(a1-3)[Man(a1-6)]Man(b1-4)GlcNAc(b1-4)GlcNAc
# Outline: as §1
# [10] = target: Gal(b1-4)GlcNAc(b1-2)Man(a1-6)Man(b1-4)GlcNAc(b1-4)GlcNAc
# Outline: as §1
# [11] = target: Gal(b1-4)GlcNAc(b1-2)Man(a1-6)[GlcNAc(b1-2)Man(a1-3)]Man(b1-4)GlcNAc(b1-4)GlcNAc
# Outline: as §1
# [12] = target: Gal(b1-4)GlcNAc(b1-2)Man(a1-6)[Man(a1-3)]Man(b1-4)GlcNAc(b1-4)GlcNAc
# Outline: as §1
# [13] = target: Gal(b1-4)GlcNAc(b1-2)[Gal(b1-4)GlcNAc(b1-4)]Man(a1-3)[Gal(b1-4)GlcNAc(b1-2)Man(a1-6)]Man(b1-4)GlcNAc(b1-4)GlcNAc
# Outline: as §1
# [14] = target: Gal(b1-4)GlcNAc(b1-2)[Gal(b1-4)GlcNAc(b1-4)]Man(a1-3)[Gal(b1-4)GlcNAc(b1-2)[Gal(b1-4)GlcNAc(b1-6)]Man(a1-6)]Man(b1-4)GlcNAc(b1-4)GlcNAc
# Outline: as §1
# [15] = target: Gal(b1-4)GlcNAc(b1-2)[Gal(b1-4)GlcNAc(b1-4)]Man(a1-3)[GlcNAc(b1-4)][Gal(b1-4)GlcNAc(b1-2)Man(a1-6)]Man(b1-4)GlcNAc(b1-4)GlcNAc
# Outline: as §1
# [16] = target: Gal(b1-4)GlcNAc(b1-2)[Gal(b1-4)GlcNAc(b1-4)]Man(a1-3)[GlcNAc(b1-4)][Gal(b1-4)GlcNAc(b1-2)[Gal(b1-4)GlcNAc(b1-6)]Man(a1-6)]Man(b1-4)GlcNAc(b1-4)GlcNAc
# Outline: as §1
# [17] = target: Gal(b1-4)GlcNAc(b1-2)[Gal(b1-4)GlcNAc(b1-6)]Man(a1-6)[Gal(b1-4)GlcNAc(b1-2)Man(a1-3)]Man(b1-4)GlcNAc(b1-4)GlcNAc
# Outline: as §1
# [18] = target: Gal(b1-4)GlcNAc(b1-2)[Gal(b1-4)GlcNAc(b1-6)]Man(a1-6)[Gal(b1-4)GlcNAc(b1-2)Man(a1-3)]Man(b1-4)GlcNAc(b1-4)[Fuc(a1-6)]GlcNAc
# Outline: as §1
# [19] = target: Gal(b1-4)GlcNAc(b1-2)[Gal(b1-4)GlcNAc(b1-6)]Man(a1-6)[GlcNAc(b1-4)][Gal(b1-4)GlcNAc(b1-2)Man(a1-3)]Man(b1-4)GlcNAc(b1-4)GlcNAc
# Outline: as §1
# [20] = target: Gal(b1-4)GlcNAc(b1-2)[Gal(b1-4)GlcNAc(b1-6)]Man(a1-6)[GlcNAc(b1-4)][Gal(b1-4)GlcNAc(b1-2)[Gal(b1-4)GlcNAc(b1-4)]Man(a1-3)]Man(b1-4)GlcNAc(b1-4)[Fuc(a1-6)]GlcNAc
# Outline: as §1
# [21] = target: Gal(b1-4)GlcNAc(b1-3)Gal(b1-3)GalNAc
# Outline: as §1
# [22] = target: Gal(b1-4)GlcNAc(b1-3)Gal(b1-3)GlcNAc
# Outline: as §1
# [23] = target: Gal(b1-4)GlcNAc(b1-3)Gal(b1-4)Glc
# Outline: as §1
# [24] = target: Gal(b1-4)GlcNAc(b1-3)Gal(b1-4)GlcNAc
# Outline: as §1
# [25] = target: Gal(b1-4)GlcNAc(b1-3)Gal(b1-4)GlcNAc(b1-2)Man(a1-3)[Gal(b1-4)GlcNAc(b1-3)Gal(b1-4)GlcNAc(b1-2)Man(a1-6)]Man(b1-4)GlcNAc(b1-4)GlcNAc
# Outline: as §1
# [26] = target: Gal(b1-4)GlcNAc(b1-3)Gal(b1-4)GlcNAc(b1-2)Man(a1-3)[Gal(b1-4)GlcNAc(b1-3)Gal(b1-4)GlcNAc(b1-2)Man(a1-6)]Man(b1-4)GlcNAc(b1-4)[Fuc(a1-6)]GlcNAc
# Outline: as §1
# [27] = target: Gal(b1-4)GlcNAc(b1-3)Gal(b1-4)GlcNAc(b1-2)[Gal(b1-4)GlcNAc(b1-3)Gal(b1-4)GlcNAc(b1-6)]Man(a1-6)[Gal(b1-4)GlcNAc(b1-3)Gal(b1-4)GlcNAc(b1-2)Man(a1-3)]Man(b1-4)GlcNAc(b1-4)GlcNAc
# Outline: as §1
# [28] = target: Gal(b1-4)GlcNAc(b1-3)Gal(b1-4)GlcNAc(b1-2)[Gal(b1-4)GlcNAc(b1-3)Gal(b1-4)GlcNAc(b1-6)]Man(a1-6)[Gal(b1-4)GlcNAc(b1-3)Gal(b1-4)GlcNAc(b1-2)Man(a1-3)]Man(b1-4)GlcNAc(b1-4)[Fuc(a1-6)]GlcNAc
# Outline: as §1
# [29] = target: Gal(b1-4)GlcNAc(b1-3)Gal(b1-4)GlcNAc(b1-3)Gal(b1-4)GlcNAc
# Outline: as §1
# [30] = target: Gal(b1-4)GlcNAc(b1-3)Gal(b1-4)GlcNAc(b1-3)Gal(b1-4)GlcNAc(b1-2)Man(a1-3)[Gal(b1-4)GlcNAc(b1-3)Gal(b1-4)GlcNAc(b1-3)Gal(b1-4)GlcNAc(b1-2)Man(a1-6)]Man(b1-4)GlcNAc(b1-4)GlcNAc
# Outline: as §1
# [31] = target: Gal(b1-4)GlcNAc(b1-3)Gal(b1-4)GlcNAc(b1-3)Gal(b1-4)GlcNAc(b1-2)Man(a1-3)[Gal(b1-4)GlcNAc(b1-3)Gal(b1-4)GlcNAc(b1-3)Gal(b1-4)GlcNAc(b1-2)Man(a1-6)]Man(b1-4)GlcNAc(b1-4)[Fuc(a1-6)]GlcNAc
# Outline: as §1
# [32] = target: Gal(b1-4)GlcNAc(b1-3)Gal(b1-4)GlcNAc(b1-3)Gal(b1-4)GlcNAc(b1-2)[Gal(b1-4)GlcNAc(b1-3)Gal(b1-4)GlcNAc(b1-3)Gal(b1-4)GlcNAc(b1-6)]Man(a1-6)[Gal(b1-4)GlcNAc(b1-3)Gal(b1-4)GlcNAc(b1-3)Gal(b1-4)GlcNAc(b1-2)Man(a1-3)]Man(b1-4)GlcNAc(b1-4)[Fuc(a1-6)]GlcNAc
# Outline: as §1
# [33] = target: Gal(b1-4)GlcNAc(b1-3)Gal(b1-4)GlcNAc(b1-3)Gal(b1-4)GlcNAc(b1-3)Gal(b1-4)GlcNAc(b1-2)Man(a1-3)[Gal(b1-4)GlcNAc(b1-3)Gal(b1-4)GlcNAc(b1-3)Gal(b1-4)GlcNAc(b1-3)Gal(b1-4)GlcNAc(b1-2)Man(a1-6)]Man(b1-4)GlcNAc(b1-4)GlcNAc
# Outline: as §1
binder,measurement,setting,value
B1,glycan array binding signal (z-score),Gal(b1-4)Glc,-0.291
same,glycan array binding signal (z-score),Gal(b1-4)Glc6S,0.255
same,glycan array binding signal (z-score),Gal(b1-4)GlcNAc,-0.478
same,glycan array binding signal (z-score),[1],0.075
same,glycan array binding signal (z-score),Gal(b1-4)GlcNAc(b1-2)Man,-0.245
same,glycan array binding signal (z-score),[2],-0.047
same,glycan array binding signal (z-score),[3],-0.393
same,glycan array binding signal (z-score),[4],-0.202
same,glycan array binding signal (z-score),[5],-0.346
same,glycan array binding signal (z-score),[6],-0.346
same,glycan array binding signal (z-score),[7],-0.193
same,glycan array binding signal (z-score),[8],-0.549
same,glycan array binding signal (z-score),[9],-0.211
same,glycan array binding signal (z-score),[10],-0.046
same,glycan array binding signal (z-score),[11],-0.161
same,glycan array binding signal (z-score),[12],-0.359
same,glycan array binding signal (z-score),[13],-0.08
same,glycan array binding signal (z-score),[14],0.003
same,glycan array binding signal (z-score),[15],-0.29
same,glycan array binding signal (z-score),[16],-0.091
same,glycan array binding signal (z-score),[17],-0.437
same,glycan array binding signal (z-score),[18],-0.246
same,glycan array binding signal (z-score),[19],-0.462
same,glycan array binding signal (z-score),[20],-0.476
same,glycan array binding signal (z-score),[21],-0.306
same,glycan array binding signal (z-score),[22],-0.255
same,glycan array binding signal (z-score),[23],0.086
same,glycan array binding signal (z-score),[24],-0.291
same,glycan array binding signal (z-score),[25],0.332
same,glycan array binding signal (z-score),[26],0.852
same,glycan array binding signal (z-score),[27],0.359
same,glycan array binding signal (z-score),[28],0.712
same,glycan array binding signal (z-score),[29],-0.272
same,glycan array binding signal (z-score),[30],1.18
same,glycan array binding signal (z-score),[31],0.086
same,glycan array binding signal (z-score),[32],0.514
same,glycan array binding signal (z-score),[33],0.32
